Results taken from PubChem BioAssay AID504374 (National Center for Advancing Translational Sciences (NCATS), 2011).
Among all 1,500 compounds or so, about 100 (6.7%) were called active. Inconclusive results (about 7%) are left out. Calls come from the whole dose curve; as a rule, active = well fitted inhibition curve with a large enough effect; inconclusive = small, poorly fitted or top-dose-only effect, or effect the other way; inactive = flat fitted curve, though single readings scatter. Some of the results follow.

These compounds were tested against Runt-related transcription factor 1 (Homo sapiens) + Core-binding factor subunit beta (Homo sapiens) (UniProt Q01196+Q13951) (assay: qHTS Assay for Compounds Blocking the Interaction Between CBF-beta and RUNX1 for the Treatment of Acute Myeloid Leukemia: Hit Validation). Conditions: AlphaScreen CBFb-His/RUNX1-biotin binding; series mostly up to 59.8 µM; activity, negative = inhibition: at the top concentration.
Chain of UniProt Q01196 (Q01196 whole entry, looked up): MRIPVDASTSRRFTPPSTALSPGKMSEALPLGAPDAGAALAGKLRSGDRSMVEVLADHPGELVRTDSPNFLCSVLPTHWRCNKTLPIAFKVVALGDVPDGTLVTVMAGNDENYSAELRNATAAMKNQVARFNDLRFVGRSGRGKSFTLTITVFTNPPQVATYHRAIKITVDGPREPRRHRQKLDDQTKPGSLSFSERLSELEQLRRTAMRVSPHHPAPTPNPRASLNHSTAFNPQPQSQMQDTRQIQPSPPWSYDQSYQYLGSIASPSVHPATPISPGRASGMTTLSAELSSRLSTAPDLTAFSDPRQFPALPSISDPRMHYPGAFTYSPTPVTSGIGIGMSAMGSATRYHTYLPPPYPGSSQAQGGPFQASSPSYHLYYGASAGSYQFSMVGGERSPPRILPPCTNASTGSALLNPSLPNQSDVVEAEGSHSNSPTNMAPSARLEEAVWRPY
Chain of UniProt Q01196 (Q13951 whole entry, looked up): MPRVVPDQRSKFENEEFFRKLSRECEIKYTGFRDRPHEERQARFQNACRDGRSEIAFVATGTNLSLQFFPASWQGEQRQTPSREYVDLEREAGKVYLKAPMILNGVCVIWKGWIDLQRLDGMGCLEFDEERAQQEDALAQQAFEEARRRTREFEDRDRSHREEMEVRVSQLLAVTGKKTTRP
Outline: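 AlphaScreen proximity assay: His-tagged CBF-beta and biotinylated RUNX1 (30 nM each) preincubated 20 min, then compound 15 min, then nickel and streptavidin beads 90 min, all at room temperature; signal read at […]em 440 nm.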
% is set by controls: 0 for no effect and ±100 for the full control effect; potency is the fitted concentration of half-maximal effect.
Note: nearly all actives have a fitted effect of over 60% in size.

activity, negative = inhibition, inactive:
O=C(O)COCC(=O)N1CCN(C2c3ccccc3-c3ccccc32)CC1 -2.67%, CCOc1ccc(N2C(=O)S/C(=C\c3cc(OC)c(OC)c(OC)c3)C2=O)cc1 3.75%, COc1c(NC(C)=O)c2ccccc2c2ccccc12 -0.619%, N#CC(C(=O)c1ccccc1Cl)=C1SCCCS1 2.29%, O=C1CCN(S(=O)(=O)c2ccc(Cl)cc2)CCN1 2.7%, [O-]/[N+](=C\C=C\c1ccccc1)c1ccccc1 0.917%, O=C1CCCN1CCCNC(=S)Nc1ccccc1 -7.84%, CCCOc1ccc(-c2nc(-c3ccc([N+](=O)[O-])cc3)cs2)cc1 -3.28%, CCOc1nc2c(c(-c3cccs3)c1C#N)Cc1ccccc1-2 -0.648%, Nc1nc(Nc2ccccc2)nc(NCCO)c1[N+](=O)[O-] -6.03%, COc1ccccc1Cc1nc(-c2cccnc2)no1 -20.2%, CC(C)(C)c1cc2nc(N)nc(N)n2n1 5.32%, Cc1onc(-c2c(F)cccc2Cl)c1C(O)c1ccc(F)cc1 (stereo unspecified) 7.39%, CC(=O)c1sc(C(C)(C)C)cc1NC(=O)CCC(=O)O 3.13%, Cc1ccc2cc(NC(=O)Cc3ccccc3)ccc2n1 1.09%, CCOP(=O)(c1ccc(N(C)C)cc1)C(O)c1cccnc1 (stereo unspecified) -3.85%, O=C1CCC(c2ccccc2)(c2ccccc2)CC1 2.46%, Nn1c(SCC(=O)Nc2ccc(S(N)(=O)=O)cc2)nnc1C(F)(F)F 4.8%, Cc1nc(SCc2cccc(F)c2)c2oc3ccccc3c2n1 4.51%, O=C(CN1CCN(C(c2ccccc2)c2ccccc2)CC1)N1N=CCC1c1ccccc1 (stereo unspecified) -5.94%, COc1cccc(N/C(=N/C(=S)Nc2ccc(C)cc2C)Nc2nc(C)cc(C)n2)c1 -8.33%, Cc1nn2c(NCCCN(C)C)c3c(nc2c1-c1ccccc1)CCCC3 -5.29%, CCCN(CCC)CC(=O)N1CC(=O)Nc2ccccc21 -3.26%, COC(=O)c1sccc1NC(=O)CC1C(=O)NCCN1C(=O)c1ccc(C)c(C)c1 (stereo unspecified) -1.81%, O=C(Oc1cc(=O)oc2c1c(=O)n1c3c(cccc23)CC1)c1ccc(F)cc1 -3.29%, CCC(C)NC(=O)CC(C)C (stereo unspecified) -11.8%, O=C(c1ccc(Cn2cc(Cl)c([N+](=O)[O-])n2)cc1)N1CCN(Cc2ccccc2)CC1 -5.87%, Nc1ccc(C(=O)Nc2ccc(Nc3ccncc3)cc2)cc1 -7.6%, c1ccc(-n2ncc3cccnc32)cc1 8.29%, COc1ccc(-c2nnc(SCC(=O)N/N=C/c3ccccc3C(=O)O)n2-c2ccc(Cl)cc2)cc1 0.903%, CC12CCC(C/C1=N\OC(=O)c1c(F)cccc1F)C2(C)C (stereo unspecified) 1.96%, O=C(Nc1ccc2ccccc2c1)c1cccc(F)c1 1.18%, Cc1ccc(/C=N/N2CCN(c3ccccn3)CC2)o1 -6.58%, CCNC(=O)Oc1ccc[nH]c1=O 4.28%, COc1cccc(/C=C2\SC(=S)N(C(C(=O)O)c3ccccc3)C2=O)c1OC (stereo unspecified) 0.937%, CCCc1ccc(C(=O)NC(=O)c2ccccc2O)cc1 -5.21%, COC(=O)c1ccc(COc2ccc(C)cc2[N+](=O)[O-])o1 9.46%, CCOC(=O)c1cn[nH]c1NC(=S)Nc1ccc(OC)cc1 12.7%, Cc1nn2c(NCc3ccccn3)cc(C(C)C)nc2c1-c1ccccc1 1.61%, COc1ccccc1OCc1ccc(C(=O)NN)o1 -13.3%, O=C1COc2ccc(C(=O)CSc3ccccc3C(=O)O)cc2N1 10.8%, Cc1ccc(OCc2ccc(C(=O)NN)o2)cc1C 2.41%, Nc1cc(Cl)nnc1Cl -2.32%, CC(C)CCN1NC2(CCCC(C)C2)NC1=S (stereo unspecified) -10.9%, Cc1nn2c(NCCN(C)C)c3c(nc2c1-c1ccccc1)CCCC3 6.23%, CCn1cc(C(c2ccccc2)C(C(C)=O)[N+](=O)[O-])c2ccccc21 (stereo unspecified) -2.5%, O=C(O)CCNC(=O)CCCn1nnc2ccccc2c1=O -5.68%, O=S(=O)(c1ccc(F)cc1F)N1CCCN(c2ccc(C(F)(F)F)cn2)CC1 -2.34%, CCOC(=O)N1CCC(NS(=O)(=O)c2ccc(C)cc2)CC1 1.85%, C/C(=N/NC(=O)CNC(=O)Cc1ccccc1)c1ccc(Cl)cc1 -14.4%, CC(C)N(CCn1cnc2c([nH]c3ccccc32)c1=O)C(C)C 1.42%, S=C(N/N=C/c1cccc2ccccc12)Nc1cccc(Cl)c1 -12.9%, COCCn1c(-c2ccc(Br)cc2)nc2oc3cc(OC)ccc3c(=O)c2c1=O -5.69%, CCn1c(SCC(=O)N/N=C/c2ccncc2)nc2ccccc21 1.76%, COc1ccc(C(=O)O)nc1C -29.3%, Cc1sc2nc(COC(=O)c3ccc(Cl)c(N)c3)[nH]c(=O)c2c1C 8.4%, Cc1nn(C)cc1/C=N/NC(=O)c1ccco1 -3.8%, Cc1ccc(N=CC2=C(O)CC(c3ccccc3Cl)CC2=O)cc1 (stereo unspecified) 3.29%, CN(C)c1cc(-c2ccc(Br)cc2)oc(=O)c1Cl -13%, CN1c2ccccc2C(=O)/C(=C\Nc2ccc(F)cc2F)S1(=O)=O -0.318%, Cc1oc(S(=O)(=O)N2CCCC2)cc1C(=O)Nc1ccc(F)cc1 -4.36%, O=C(CSc1nc2ccccc2n1Cc1ccccc1Cl)N/N=C/c1ccccc1C(=O)O -18%, O=C(NNC(=S)NC1CC2C=CC1C2)c1ccncc1 (stereo unspecified) 8.75%, O=C(Oc1c(-c2ccccc2)c(=O)n2c3c(cccc13)CC2)c1ccc(Cl)cc1 -18.5%, CCOC(=O)[C@H](CCc1ccccc1)N[C@@H](C)C(=O)N1[C@H](C(=O)O)C[C@H]2CCCC[C@@H]21 -20.1%, Cc1nc2ccccc2nc1N1CCCC1 2.06%, Cn1nccc1NS(=O)(=O)c1ccc(C(C)(C)C)cc1 -11%, CCOC(=O)Cc1csc(NC(=O)Nc2cccc(OC)c2)n1 6.65%, CCOC(=O)C1CCCN(C(=O)c2csc(-c3ccc4c(c3)CCO4)n2)C1 (stereo unspecified) -2.05%, O=C(Nc1ccc(F)cc1F)Nc1csc2ccccc12 -20.1%, Cc1onc(-c2ccccc2)c1C(=O)Oc1ccccc1 14.2%, CCCc1c(NC(=O)Nc2ccc(F)cc2)cnn1-c1ccc(Cl)cc1 -1.45%, COc1ccccc1N1CC(C)(C)C(=O)N(C(=O)c2ccc(Cl)cc2)C1=S -3.81%, N#Cc1c(N)nc2c(c1-c1ccc(F)cc1)CCC2 5.26%, CC1CC(C)(C)OC(C[N+]2(C)CCCCC2)O1 (stereo unspecified) -0.393%, Cc1cc(C)cc(OCc2ccc(C(=O)NN)o2)c1 -8.38%, Cc1nc(-c2ccc(S(=O)(=O)N3CCN(CCc4ccccc4)CC3)s2)cs1 -2.36%, NCC(=O)c1cccc2ccc[n+]([O-])c12 -3.82%, CC1(c2ccccc2)O[C@@H]2C[C@H]3[C@@H]4CCC5=CC(=O)C=C[C@]5(C)[C@@]4(F)[C@@H](O)C[C@]3(C)[C@]2(C(=O)CO)O1 (stereo partly specified) -1.17%, CCN(CC)S(=O)(=O)c1ccc(/C=C/C(=O)Nc2ccc(N3CCOCC3)cc2)cc1 3.47%, O=C(O)c1cnc2[nH]c3ccccc3n2c1=O -12%, CN1c2ccccc2C(=O)/C(=C\Nc2ccc(F)cc2)S1(=O)=O -5.52%, COc1cc(/C=N/n2c(-c3ccccc3)n[nH]c2=S)cc(OC)c1O -4.33%, CCOC(=O)N1CCC(NC(=O)CCCC(=O)O)CC1 6.93%, Cc1nn(Cc2ccc(C(=O)NN)cc2)c(C)c1Cl 1.73%, COC(=O)CSc1ncnc2c(C)csc12 1.12%, CC(C)(C)c1csc(Sc2ncccc2[N+](=O)[O-])n1 -14.6%, Cc1cccc(-c2n[nH]c(=S)n2/N=C/c2cccs2)c1 -7.44%, O=C(NNc1c(Cl)cc(Cl)cc1Cl)c1n[nH]c(=O)c2ccccc12 -8.23%, Cc1cccc(NC(=S)NNC(=O)c2cccc([N+](=O)[O-])c2)c1 -10.7%, C=C(C)C(=O)Nc1cccnc1Oc1ccc(F)cc1F -0.381%, CCCCC(=O)Nc1ccc2c(c1)nc1n2CCN(CCOC)C1 -4.29%, S=c1[nH]nc(Nc2cccc3ccccc23)s1 -14.2%, Cc1ccc(C)c(N2CCN(c3ccncc3N)CC2)c1 -11.1%, O=C(Nc1ccc2[nH]ccc2c1)c1ccccc1 -1.7%, CC1=CC(=O)C(C(C)=Nc2ccccc2Cl)C(=O)O1 (stereo unspecified) 1.35%, CCOC(=O)c1cc(-c2ccc(OC)cc2)nn1-c1ccccc1C(=O)O -6.9%, CN(c1ccccc1)c1nc(N)c([N+](=O)[O-])c(N2CCCCC2)n1 -23.2%, O=C(O)C1CCC(=O)N1C(=O)OCc1ccccc1 (stereo unspecified) 5.71%, COc1cc(/C=C/c2nc3ccc([N+](=O)[O-])cc3s2)ccc1OCC(=O)O -2.63%, COc1ccc(N/C=C2\C(=O)c3c(sc(C)c3C)N(C)S2(=O)=O)cc1 1.6%, CC(C)(C)C(=O)Nc1ccccc1C(=O)NCc1cccnc1 -1.01%, CCOC(=O)CN(C(=O)c1ccccc1[N+](=O)[O-])C(C)(C)C 0.764%, COCCCn1c(=O)/c(=C\c2ccccc2OC(C)C)s/c1=C(/C#N)C(=O)Nc1ccc(C(=O)O)cc1 -12.4%, Cn1c(=O)c2c(ncn2CC(=O)N/N=C/C=C/c2ccco2)n(C)c1=O 2.56%, Cc1cc(-c2ccccc2C(=O)Nc2ccccc2O)on1 -7.53%, N#Cc1ccc(C(c2ccc(C#N)cc2)n2cncn2)cc1 -16.8% [at 32.1 µM], COC(=O)Cc1[nH]c(Cl)nc1C(N)=O -1.61%, COc1ccccc1/C=C/C=NC1C(=O)N(c2ccccc2)[N+](C)=C1C (stereo unspecified) 1.83%, CN1CCN(c2nc3ccccn3c(=O)c2/C=C(\C#N)S(=O)(=O)c2ccccc2)CC1 5.7%, CC(=O)c1cnn(-c2ccc(Cl)c(Cl)c2Cl)c1C -3.5%, CC(C)(C)c1cc(NCc2ccccn2)n2ncc(-c3ccccc3)c2n1 2.5%, O=c1c2cc(-c3ccccc3)sc2nc2n1N=C(c1cccs1)CS2 -15.6%, CC(=O)C1=C(C)OC(N)=C(C#N)C1c1cccc2ccccc12 (stereo unspecified) -6.29%, CC(C)(C)c1ccc(C(=O)Cn2nc(C(=O)O)c3ccccc3c2=O)cc1 -8.18%

Potency, active:
N#C/C(=C\c1ccc(OC(=O)c2ccccn2)cc1)C(N)=O 4.34 µM
